# Reference: publication PMC6919601, “Identification of Plasmodium dipeptidyl aminopeptidase allosteric inhibitors by high throughput screening” (PLoS ONE, 2019)
# “And” between values parts separate entries of the source, which are not always exact repeats. Equal entries are not always repeated. About 230 (0.21%) of roughly 110,000 compounds showed an effect of 50% or more. This is one part of the list.
# Target: DPAP1 (Plasmodium falciparum, UniProt Q8IIJ9)
# Test: primary screen, percent inhibition; read by cleavage of a fluorogenic dipeptide substrate; higher = more effect of the substance
# Design: species or system P. falciparum D10 trophozoite lysates; single well
# 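Note: 30 min substrate incubation versus DMSO and 10 µM JCP410 controls.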
# DPAP1, sequence (Q8IIJ9 whole entry, looked up): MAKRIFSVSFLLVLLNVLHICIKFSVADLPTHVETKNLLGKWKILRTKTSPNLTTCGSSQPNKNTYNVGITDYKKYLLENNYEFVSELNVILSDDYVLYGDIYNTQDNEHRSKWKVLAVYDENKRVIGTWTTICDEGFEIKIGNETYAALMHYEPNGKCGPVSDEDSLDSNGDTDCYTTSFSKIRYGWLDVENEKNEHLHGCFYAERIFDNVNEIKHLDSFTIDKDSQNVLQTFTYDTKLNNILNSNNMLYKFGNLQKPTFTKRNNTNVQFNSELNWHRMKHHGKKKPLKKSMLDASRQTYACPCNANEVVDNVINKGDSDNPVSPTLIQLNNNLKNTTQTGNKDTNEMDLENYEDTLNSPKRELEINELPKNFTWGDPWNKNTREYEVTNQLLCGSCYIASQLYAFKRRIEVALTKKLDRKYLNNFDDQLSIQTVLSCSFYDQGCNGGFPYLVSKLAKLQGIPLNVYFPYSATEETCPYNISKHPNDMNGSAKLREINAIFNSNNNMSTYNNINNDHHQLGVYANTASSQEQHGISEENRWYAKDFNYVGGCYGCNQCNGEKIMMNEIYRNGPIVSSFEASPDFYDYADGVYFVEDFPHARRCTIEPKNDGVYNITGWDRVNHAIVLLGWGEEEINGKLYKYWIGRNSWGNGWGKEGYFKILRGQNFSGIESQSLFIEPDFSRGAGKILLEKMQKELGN
row,Compound,% Inhibition @ 10 uM
1,COc1ccccc1N1CCN(C(=O)C2C3C=CC(C3)C2C(=O)O)CC1 (stereo not drawn),-3.92%
2,Cn1c(Oc2cccc(Cl)c2)nc2c1c(=O)n(Cc1ccc(F)cc1)c(=O)n2C,4.93%
3,CCC1CCCCN1C(=S)NC(=O)c1ccccc1 (stereo not drawn),2.44%
4,Cc1cc(C)n2nc(CNC(=O)c3ccc(Br)o3)nc2n1,2.84%
5,Cc1cc(C)cc(NC(=O)c2ccc(Cl)c([N+](=O)[O-])c2)c1,0.135%
6,O=C1/C(=C/c2cccc(O)c2)N2CCC1CC2,0.317%
7,COc1ccc(NC(=O)CN2C(=O)S/C(=C/c3cc(C)n(-c4ccc(O)cc4)c3C)C2=O)cc1,-3.69%
8,CCCCN(CCNC(=O)Cn1nc(Cc2cccnc2)c2ccccc2c1=O)Cc1ccco1,1.24%
9,CCOC(=O)c1sc(NC(=O)COc2ccccc2C(C)C)c(C(=O)OCC)c1C,5.94%
10,Cc1ccc(S(=O)(=O)Nc2ccc(S(=O)(=O)Nc3cc(C)nc(C)n3)cc2)cc1,-1.42%
11,COc1cccc(-c2nc3cc(NC(=O)c4cncc(Br)c4)ccc3o2)c1,-1.41%
12,CN(C)C1(c2nnnn2C(/C=C\c2ccc(Cl)cc2Cl)C(C)(C)C)CCCC1 (stereo not drawn),11.6%
13,Cc1cc(C(=O)Nc2c(C)nn(Cc3ccc(Cl)c(Cl)c3)c2C)no1,-0.591%
14,Cc1oc(-c2ccc(C(=O)N3CCOCC3)cc2)nc1CS(=O)c1ccccc1 (stereo not drawn),4.44%
15,Cc1nc2ncccn2c1-c1csc(Nc2ccc(O)cc2)n1,2.65%
16,O=C(O)c1cnn2c(C(F)(F)F)cc(-c3ccccc3)nc12,-1.99%
17,COc1ccccc1C(=O)O/N=C(\N)c1ccccn1,-3.06%
18,CS(=O)(=O)CCC(C(=O)N1CCN(c2ccccn2)CC1)N1Cc2ccccc2C1=O (stereo not drawn),3.62%
19,CC(C)=CCC/C(C)=C/CN(C)C1CCN(C)CC1,-7.02%
20,O=C(C1CCCN(S(=O)(=O)c2ccc3nc(O)ccc3c2)C1)N1CCCC1 (stereo not drawn),-4.02%
21,CCCC[C@H](NC(=O)[C@H](CS(=O)(=O)Cc1ccccc1Cl)NC(=O)N1CCOCC1)C(=O)c1nc2ccccc2o1,-3.49%
22,COc1cc(/C=C2/C(=O)N=C(N)N2C)cc(OC)c1OC,-0.436% and -0.85%
23,O=C1NCCCC[C@@H]1NC1CCCCCCC1,-1.81%
24,COc1ccccc1/C=C/CNc1ccccc1Cl,5.03%

row,Compound,% Inhibition @ 10 uM
1,COc1ccc(CSC[C@H](NC(=O)c2ccccc2)C(=O)NCC#N)cc1,-6.98%
2,CCCOC(=O)c1ccc(NC(=O)c2cccc(C)c2)cc1,-1.62%
3,CCOc1ccc(CNCc2c(C(=O)O)c(C)n(Cc3ccccc3C)c2C)cc1,-1.92%
4,Cc1ccccc1CSc1ccc2nnc(CCNS(=O)(=O)c3ccccc3)n2n1,5.09%
5,CC[C@H](NC(=O)C(NC(=O)c1ccc(-c2ccccc2Cl)c(Cl)c1)C1CCCCC1)C(=O)c1nc2ccccc2o1 (stereo partly drawn),-0.207%
6,CCOc1ccccc1C1CC(=O)NC(SCc2cccc3ccccc23)=C1C#N (stereo not drawn),7.1%
7,CC1OC(Nc2cc(Cl)ccc2C(=O)O)C(O)C(O)C1O (stereo not drawn),1.93%
8,Cc1ccc(C(=O)N/C(=C\c2ccco2)C(=O)NC2CCN(Cc3ccccc3)CC2)cc1C,-4.65%
9,CN1CCN(c2ccc([N+](=O)[O-])c(Sc3nc4ccccc4[nH]3)c2)CC1,-2.02%
10,CCOC(=O)C1=C(NC(=O)c2ccc(C)cc2)S/C(=C\c2ccc(O)c(OC)c2)C1=O,-1.92%
11,CC1CCCC(N(CCCNC(=O)c2noc3c2COc2ccccc2-3)Cc2ccco2)C1C (stereo not drawn),33.9%
12,Cc1nn(-c2ccccc2)c2c1C1(C(=O)Nc3cc(Cl)ccc31)C(C#N)=C(N)O2 (stereo not drawn),-0.725%
13,NC(CC(O)c1ccc([N+](=O)[O-])cc1)C(Cl)(Cl)Cl (stereo not drawn),-1.29%
14,COc1cccc2c1OC1(C)CC2NC(=O)N1 (stereo not drawn),0.738%
15,COc1ccc2ncc(S(=O)(=O)c3ccc(C)cc3)c(N3CCC4(CC3)OCCO4)c2c1,-3.5%
16,Cc1ccc(NC(=O)c2ccccc2N(C)S(=O)(=O)c2ccccc2)c(C)c1,-1.51%
17,COc1ccc(CN2CCN(Cc3ccccc3Br)CC2)cc1,-7.09%
18,COc1ccccc1C(CNC(=O)c1oc2cc(C)c(C)cc2c1C)N(C)C (stereo not drawn),2.41%
19,COc1ccc(/C=N/OCC(=O)Nc2sc3c(c2C#N)CC(C)(C)NC3(C)C)cc1OC,-5.26%
20,CCC(Sc1nc(C)c(Cc2ccccc2)c(O)n1)C(=O)O (stereo not drawn),1.25%
21,CCn1c2ccccc2c2nnc(S)nc21,38%
22,CC12CN3CC(C)(CN(C1)C3c1ccccc1)C2=O (stereo not drawn),-0.807%
23,COc1ccc(Br)cc1CN1CCN(Cc2ccc(OC)c(OC)c2OC)CC1,-1.6%
24,CN(CCCNC(=O)CCC(=O)N1Cc2ccccc2Oc2ncccc21)Cc1ccccc1,4.69%
